pKi: −log10 of the molar value. Where two headings read alike, the source gives them in different places.
Target: human cannabinoid CB1 receptor (Homo sapiens, UniProt P21554)
Test: biochemical
Format: binding
Details: for Ki: cloned human CB1 receptor expressed in CHO cells, read-out: Affinity to CB1 (converted); for pKi: Affinity to CB1

Chain of UniProt P21554 (P21554 whole entry): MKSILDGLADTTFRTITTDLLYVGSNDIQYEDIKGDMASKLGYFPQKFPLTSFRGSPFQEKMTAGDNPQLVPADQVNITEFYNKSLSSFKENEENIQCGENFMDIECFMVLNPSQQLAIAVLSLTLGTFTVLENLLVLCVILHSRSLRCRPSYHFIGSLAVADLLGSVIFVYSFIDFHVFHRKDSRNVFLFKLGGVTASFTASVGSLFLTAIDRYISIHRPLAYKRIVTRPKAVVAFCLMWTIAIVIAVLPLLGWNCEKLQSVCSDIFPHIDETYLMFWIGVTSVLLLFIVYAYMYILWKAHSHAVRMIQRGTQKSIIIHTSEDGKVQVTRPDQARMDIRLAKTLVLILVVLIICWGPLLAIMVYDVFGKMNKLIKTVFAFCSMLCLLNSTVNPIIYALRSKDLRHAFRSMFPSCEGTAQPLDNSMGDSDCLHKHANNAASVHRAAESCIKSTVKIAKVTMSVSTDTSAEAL

| SMILES | Ki [nM] | pKi |
| --- | --- | --- |
| CNC(=NS(=O)(=O)c1ccc(Cl)cc1)N1CC(c2cccnc2)C(c2ccc(Cl)cc2)=N1 (stereo not drawn) | 79.4 |  |
| Cn1c(C(=O)NC2CCCCC2)nc(-c2ccc(Cl)cc2Cl)c1-c1ccc(Cl)cc1 | 79.4 |  |
| O=S(=O)(N=C(NCC1CCNCC1)N1CC(c2ccccc2)C(c2ccc(Cl)cc2)=N1)c1ccc(Cl)cc1 (stereo not drawn) | 2.51 |  |
| O=S(=O)(N=C(NCC1CC1)N1CC(c2ccccc2)C(c2ccc(Cl)cc2)=N1)N1CCOCC1 (stereo not drawn) | 3.16 |  |
| N/C(=N\S(=O)(=O)c1ccc(Cl)cc1)N1C[C@@H](c2ccccc2)C(c2ccc(Cl)cc2)=N1 (stereo in doubt) [N-{Amino-[3-(4-chloro-phenyl)-4-phenyl-4,5-dihydro-pyrazol-1-yl]-methylene}-4-chloro-benzenesulfonamide] | 3.98 |  |
| O=C(NN1CCCCC1)c1nc(-c2ccc(Cl)cc2Cl)n(-c2ccc(Br)cc2)c1Cl [1-(4-Bromo-phenyl)-5-chloro-2-(2,4-dichloro-phenyl)-1H-imidazole-4-carboxylic acid piperidin-1-ylamide] | 2.51 |  |
| O=C(NN1CCCCC1)c1cn(-c2ccc(Cl)cc2)c(-c2ccc(Cl)cc2Cl)n1 [1-(4-Chloro-phenyl)-2-(2,4-dichloro-phenyl)-1H-imidazole-4-carboxylic acid piperidin-1-ylamide] |  | 8.10 |
| O=C(NN1CCCCC1)c1nc(-c2ccc(Cl)cc2Cl)n(-c2ccc(Cl)cc2)c1CC(F)(F)F [1-(4-Chloro-phenyl)-2-(2,4-dichloro-phenyl)-5-(2,2,2-trifluoro-ethyl)-1H-imidazole-4-carboxylic acid piperidin-1-ylamide] | 31.6 |  |
| CCc1c(C(=O)NN2CCCCC2)nc(-c2ccc(Cl)cc2Cl)n1-c1ccc(Cl)cc1 [1-(4-Chloro-phenyl)-2-(2,4-dichloro-phenyl)-5-ethyl-1H-imidazol-4-carboxylic acid piperidin-1-ylamide] | 2 |  |
| CCSc1c(C(=O)NN2CCCCC2)nc(-c2ccc(Cl)cc2Cl)n1-c1ccc(Cl)cc1 [1-(4-Chloro-phenyl)-2-(2,4-dichloro-phenyl)-5-ethylsulfanyl-1H-imidazole-4-carboxylic acid piperidin-1-ylamide] | 39.8 |  |
| O=C(NN1CCCCC1)c1nc(-c2ccc(Cl)cc2Cl)n(-c2ccc(Cl)cc2)c1CO [1-(4-Chloro-phenyl)-2-(2,4-dichloro-phenyl)-5-hydroxymethyl-1H-imidazole-4-carboxylic acid piperidin-1-ylamide] | 25.1 |  |
| C[S+]([O-])c1c(C(=O)NN2CCCCC2)nc(-c2ccc(Cl)cc2Cl)n1-c1ccc(Cl)cc1 (stereo not drawn) [1-(4-Chloro-phenyl)-2-(2,4-dichloro-phenyl)-5-methanesulfinyl-1H-imidazole-4-carboxylic acid piperidin-1-ylamide] | 39.8 |  |
| Cc1c(C(=O)NC2CCC(O)CC2)nc(-c2ccc(Cl)cc2Cl)n1-c1ccc(Cl)cc1 (stereo not drawn) [1-(4-Chloro-phenyl)-2-(2,4-dichloro-phenyl)-5-methyl-1H-imidazole-4-carboxylic acid (4-hydroxy-cyclo-hexyl)-amide] | 251 |  |
| CCCCCc1nc(-c2ccc(Cl)cc2Cl)n(-c2ccc(Cl)cc2)c1C [1-(4-Chloro-phenyl)-2-(2,4-dichloro-phenyl)-5-methyl-4-pentyl-1H-imidazole] | 100 |  |
| CSc1c(C(=O)NN2CCCCC2)nc(-c2ccc(Cl)cc2Cl)n1-c1ccc(Cl)cc1 [1-(4-Chloro-phenyl)-2-(2,4-dichloro-phenyl)-5-methylsulfanyl-1H-imidazole-4-carboxylic acid piperidin-1-ylamide] | 10 |  |
| O=C(NN1CCCCC1)c1nc(-c2ccc(Cl)cc2Cl)n(-c2ccc(Cl)cc2)c1CN1CCCC1 [1-(4-Chloro-phenyl)-2-(2,4-dichloro-phenyl)-5-pyrrolidin-1-ylmethyl-1H-imidazole-4-carboxylic acid piperidin-1-ylamide] | 501 |  |
| CCc1c(C(=O)NN2CCCCC2)nc(-c2ccccc2Cl)n1-c1ccc(Cl)cc1 [1-(4-Chloro-phenyl)-2-(2-chloro-phenyl)-5-ethyl-1H-imidazole-4-carboxylic acid piperidin-1-ylamide, reference compound] | 12.6 |  |
| O=C(NN1CCCCC1)c1nc(-c2ccc(Cl)cc2Cl)n(-c2ccc(Cl)cc2)n1 [1-(4-Chloro-phenyl)-5-(2,4-dichloro-phenyl)-1H-[1,2,4]triazole-3-carboxylic acid piperidin-1-yl-amide] | 316 |  |
| N=C(N)C1=NN(c2ccc(Cl)cc2)C(c2ccccc2)C1 (stereo not drawn) [1-(4-Chloro-phenyl)-5-phenyl-4,5-dihydro-1H-pyrazole-3-carboxamidine] | 631 |  |
| O=C(NN1CCCCC1)C1=NN(c2ccc(Cl)cc2)C(c2ccccc2)C1 (stereo not drawn) [1-(4-Chloro-phenyl)-5-phenyl-4,5-dihydro-1H-pyrazole-3-carboxylic acid piperidin-1-ylamide] | 63.1 |  |
| CS(=O)(=O)C(=C1CN(C(c2ccc(Cl)cc2)c2ccc(Cl)cc2)C1)c1cc(F)cc(F)c1 [1-[Bis-(4-chloro-phenyl)-methyl]-3-[(3,5-difluoro-phenyl)-methanesulfonyl-methylene]-azetidine, reference compound] | 6.31 |  |
| NC(=O)C1CCN(C(=NS(=O)(=O)c2ccc(Cl)cc2)N2CC(c3ccccc3)C(c3ccc(Cl)cc3)=N2)CC1 (stereo not drawn) [1-{(4-Chloro-benzene-sulfonylimino)-[3-(4-chloro-phenyl)-4-phenyl-4,5-dihydro-pyrazol-1-yl]-methyl}-piperidine-4-carboxylic acid amide] | 6.31 |  |
| O=C(NN1CCCCC1)c1cn(-c2ccc(C(F)(F)F)cc2)c(-c2ccc(Cl)cc2Cl)n1 [2-(2,4-Dichloro-phenyl)-1-(4-trifluoromethyl-phenyl)-1H-imidazole-4-carboxylic acid piperidin-1-ylamide] | 25.1 |  |
| Cc1c(C(=O)NN2CCCCC2)nc(-c2ccc(Cl)cc2Cl)n1-c1ccccn1 [2-(2,4-Dichloro-phenyl)-5-methyl-1-pyridin-2-yl-1H-imidazole-4-carboxylic acid piperidin-1-ylamide] | 50.1 |  |
| O=C(NN1CCCCC1)c1cn(-c2ccc(C(F)(F)F)cc2)c(-c2ccccc2Cl)n1 [2-(2-Chloro-phenyl)-1-(4-trifluoromethyl-phenyl)-1H-imidazole-4-carboxylic acid piperidin-1-ylamide] | 100 |  |
| CCCCC(C)(O)c1nc(-c2ccc(Cl)cc2Cl)n(-c2ccc(Cl)cc2)c1C (stereo not drawn) [2-[1-(4-Chloro-phenyl)-2-(2,4-dichloro-phenyl)-5-methyl-1H-imidazol-4-yl]-hexan-2-ol] | 251 |  |
| CCC1CN=C(N2CC(c3ccccc3)C(c3ccc(Cl)cc3)=N2)O1 (stereo not drawn) [2-[3-(4-Chloro-phenyl)-4-phenyl-4,5-dihydro-pyrazol-1-yl]-5-ethyl-4,5-dihydro-oxazole] | 631 |  |
| Cn1c(C(=O)NC2CCCCC2)nc(-c2ccc(Cl)cc2)c1-c1ccc(Cl)cc1Cl [4-(4-Chloro-phenyl)-5-(2,4-dichloro-phenyl)-1-methyl-1H-imidazole-2-carboxylic acid cyclohexylamide] |  | 7.20 |
| O=C(NS(=O)(=O)c1ccc(Cl)cc1)N1CC(c2ccccc2)C(c2ccc(Cl)cc2)=N1 (stereo not drawn) [4-Chloro-N-[3-(4-chloro-phenyl)-4-phenyl-4,5-dihydro-pyrazole-1-carbonyl]-benzenesulfonamide] | 316 |  |
| N#CCCNC(=NS(=O)(=O)c1ccc(Cl)cc1)N1CC(c2ccccc2)C(c2ccc(Cl)cc2)=N1 (stereo not drawn) [4-Chloro-N-[[3-(4-chloro-phenyl)-4-phenyl-4,5-dihydro-pyrazol-1-yl]-(2-cyano-ethylamino)-methylene]-benzene sulfonamide] | 12.6 |  |

From patent US20070254863A1 (priority 2006, published 2007)
